# Source: the supplement of paper PMC8728848
# This is one part of the list.
# Assays:
# Assay in all cases: glycan array binding signal (z-score within array); higher = stronger binding
# Settings in all cases: glycan notation: IUPAC condensed, linker removed
# [1] = biological target: Neu5Ac(a2-3)Gal(b1-4)GlcNAc(b1-3)[Neu5Ac(a2-3)Gal(b1-4)GlcNAc(b1-6)]GalNAc
# Procedure, shortened: (§1)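 Glycan array data were curated from 3228 arrays in the Consortium for Functional Glycomics database and kept only where the protein sequence was available. Glycan names were converted to IUPAC-condensed notation, and columns mapping to the same glycan were averaged. The binding signal is a within-array Z-score, averaged across arrays of the same protein sequence at different concentrations or buffers and across linkers. Negative Z-scores can be read as non-binding.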
# [2] = biological target: Neu5Ac(a2-3)Gal(b1-4)GlcNAc(b1-6)GalNAc
# Procedure, shortened: as §1
# [3] = biological target: Neu5Ac(a2-3)Gal(b1-4)GlcNAc(b1-6)[Gal(b1-3)]GalNAc
# Procedure, shortened: as §1
# [4] = biological target: Neu5Ac(a2-3)Gal(b1-4)GlcNAc(b1-6)[Neu5Ac(a2-3)Gal(b1-3)]GalNAc
# Procedure, shortened: as §1
# [5] = biological target: Neu5Ac(a2-3)Gal(b1-4)GlcNAc6S
# Procedure, shortened: as §1
# [6] = biological target: Neu5Ac(a2-3)Gal(b1-4)[Fuc(a1-3)]GlcNAc
# Procedure, shortened: as §1
# [7] = biological target: Neu5Ac(a2-3)Gal(b1-4)[Fuc(a1-3)]GlcNAc(b1-2)Man
# Procedure, shortened: as §1
# [8] = biological target: Neu5Ac(a2-3)Gal(b1-4)[Fuc(a1-3)]GlcNAc(b1-3)Gal
# Procedure, shortened: as §1
# [9] = biological target: Neu5Ac(a2-3)Gal(b1-4)[Fuc(a1-3)]GlcNAc(b1-3)Gal(b1-4)GlcNAc
# Procedure, shortened: as §1
# [10] = biological target: Neu5Ac(a2-3)Gal(b1-4)[Fuc(a1-3)]GlcNAc(b1-3)Gal(b1-4)[Fuc(a1-3)]GlcNAc(b1-3)Gal(b1-4)[Fuc(a1-3)]GlcNAc
# Procedure, shortened: as §1
# [11] = biological target: Neu5Ac(a2-3)Gal(b1-4)[Fuc(a1-3)]GlcNAc(b1-3)GalNAc
# Procedure, shortened: as §1
# [12] = biological target: Neu5Ac(a2-3)Gal(b1-4)[Fuc(a1-3)]GlcNAc(b1-6)[Gal(b1-3)]GalNAc
# Procedure, shortened: as §1
# [13] = biological target: Neu5Ac(a2-3)Gal(b1-4)[Fuc(a1-3)]GlcNAc(b1-6)[Neu5Ac(a2-3)Gal(b1-3)]GalNAc
# Procedure, shortened: as §1
# [14] = biological target: Neu5Ac(a2-3)Gal(b1-4)[Fuc(a1-3)]GlcNAc6S
# Procedure, shortened: as §1
# [15] = biological target: Neu5Ac(a2-3)Gal6S(b1-4)GlcNAc
# Procedure, shortened: as §1
# [16] = biological target: Neu5Ac(a2-3)Gal6S(b1-4)[Fuc(a1-3)]GlcNAc
# Procedure, shortened: as §1
# Neu5Ac(a2-3)GalNAc = biological target: Neu5Ac(a2-3)GalNAc
# Procedure, shortened: as §1
# [17] = biological target: Neu5Ac(a2-3)GalNAc(b1-4)GlcNAc
# Procedure, shortened: as §1
# [18] = biological target: Neu5Ac(a2-3)[GalNAc(b1-4)]Gal(b1-4)Glc
# Procedure, shortened: as §1
# [19] = biological target: Neu5Ac(a2-3)[GalNAc(b1-4)]Gal(b1-4)GlcNAc
# Procedure, shortened: as §1
# [20] = biological target: Neu5Ac(a2-3)[GalNAc(b1-4)]Gal(b1-4)GlcNAc(b1-3)GalNAc
# Procedure, shortened: as §1
# [21] = biological target: Neu5Ac(a2-3)[Neu5Ac(a2-6)]GalNAc
# Procedure, shortened: as §1
# Neu5Ac(a2-6)Gal = biological target: Neu5Ac(a2-6)Gal
# Procedure, shortened: as §1
# [22] = biological target: Neu5Ac(a2-6)Gal(b1-3)GlcNAc(b1-3)[Gal(b1-4)GlcNAc(b1-6)]Gal(b1-4)Glc
# Procedure, shortened: as §1
# Neu5Ac(a2-6)Gal(b1-4)Glc = biological target: Neu5Ac(a2-6)Gal(b1-4)Glc
# Procedure, shortened: as §1
# [23] = biological target: Neu5Ac(a2-6)Gal(b1-4)GlcNAc
# Procedure, shortened: as §1
# [24] = biological target: Neu5Ac(a2-6)Gal(b1-4)GlcNAc(b1-2)Man
# Procedure, shortened: as §1
# [25] = biological target: Neu5Ac(a2-6)Gal(b1-4)GlcNAc(b1-2)Man(a1-3)Man(b1-4)GlcNAc(b1-4)GlcNAc
# Procedure, shortened: as §1
# [26] = biological target: Neu5Ac(a2-6)Gal(b1-4)GlcNAc(b1-2)Man(a1-3)[Gal(b1-4)GlcNAc(b1-2)Man(a1-6)]Man(b1-4)GlcNAc(b1-4)GlcNAc
# Procedure, shortened: as §1
# [27] = biological target: Neu5Ac(a2-6)Gal(b1-4)GlcNAc(b1-2)Man(a1-3)[GlcNAc(b1-2)Man(a1-6)]Man(b1-4)GlcNAc(b1-4)GlcNAc
# Procedure, shortened: as §1
# [28] = biological target: Neu5Ac(a2-6)Gal(b1-4)GlcNAc(b1-2)Man(a1-3)[GlcNAc(b1-4)][Neu5Ac(a2-6)Gal(b1-4)GlcNAc(b1-2)Man(a1-6)]Man(b1-4)GlcNAc(b1-4)GlcNAc
# Procedure, shortened: as §1
# [29] = biological target: Neu5Ac(a2-6)Gal(b1-4)GlcNAc(b1-2)Man(a1-3)[Man(a1-6)]Man(b1-4)GlcNAc(b1-4)GlcNAc
# Procedure, shortened: as §1
# [30] = biological target: Neu5Ac(a2-6)Gal(b1-4)GlcNAc(b1-2)Man(a1-3)[Neu5Ac(a2-3)Gal(b1-4)GlcNAc(b1-2)Man(a1-6)]Man(b1-4)GlcNAc(b1-4)GlcNAc
# Procedure, shortened: as §1
# [31] = biological target: Neu5Ac(a2-6)Gal(b1-4)GlcNAc(b1-2)Man(a1-3)[Neu5Ac(a2-6)Gal(b1-4)GlcNAc(b1-2)Man(a1-6)]Man(b1-4)GlcNAc(b1-4)GlcNAc
# Procedure, shortened: as §1
# [32] = biological target: Neu5Ac(a2-6)Gal(b1-4)GlcNAc(b1-2)Man(a1-3)[Neu5Ac(a2-6)Gal(b1-4)GlcNAc(b1-2)Man(a1-6)]Man(b1-4)GlcNAc(b1-4)[Fuc(a1-6)]GlcNAc
# Procedure, shortened: as §1
# [33] = biological target: Neu5Ac(a2-6)Gal(b1-4)GlcNAc(b1-2)Man(a1-6)Man(b1-4)GlcNAc(b1-4)GlcNAc
# Procedure, shortened: as §1
# [34] = biological target: Neu5Ac(a2-6)Gal(b1-4)GlcNAc(b1-2)Man(a1-6)[Gal(b1-4)GlcNAc(b1-2)Man(a1-3)]Man(b1-4)GlcNAc(b1-4)GlcNAc
# Procedure, shortened: as §1
# [35] = biological target: Neu5Ac(a2-6)Gal(b1-4)GlcNAc(b1-2)Man(a1-6)[GlcNAc(b1-2)Man(a1-3)]Man(b1-4)GlcNAc(b1-4)GlcNAc
# Procedure, shortened: as §1
# [36] = biological target: Neu5Ac(a2-6)Gal(b1-4)GlcNAc(b1-2)Man(a1-6)[Man(a1-3)]Man(b1-4)GlcNAc(b1-4)GlcNAc
# Procedure, shortened: as §1
# [37] = biological target: Neu5Ac(a2-6)Gal(b1-4)GlcNAc(b1-2)[Neu5Ac(a2-6)Gal(b1-4)GlcNAc(b1-4)]Man(a1-3)[GlcNAc(b1-4)][Neu5Ac(a2-6)Gal(b1-4)GlcNAc(b1-2)[Neu5Ac(a2-6)Gal(b1-4)GlcNAc(b1-6)]Man(a1-6)]Man(b1-4)GlcNAc(b1-4)GlcNAc
# Procedure, shortened: as §1
# [38] = biological target: Neu5Ac(a2-6)Gal(b1-4)GlcNAc(b1-2)[Neu5Ac(a2-6)Gal(b1-4)GlcNAc(b1-4)]Man(a1-3)[GlcNAc(b1-4)][Neu5Ac(a2-6)Gal(b1-4)GlcNAc(b1-4)Man(a1-6)]Man(b1-4)GlcNAc(b1-4)GlcNAc
# Procedure, shortened: as §1
# [39] = biological target: Neu5Ac(a2-6)Gal(b1-4)GlcNAc(b1-2)[Neu5Ac(a2-6)Gal(b1-4)GlcNAc(b1-6)]Man(a1-6)[Neu5Ac(a2-6)Gal(b1-4)GlcNAc(b1-2)Man(a1-3)][GlcNAc(b1-4)]Man(b1-4)GlcNAc(b1-4)GlcNAc
# Procedure, shortened: as §1
# [40] = biological target: Neu5Ac(a2-6)Gal(b1-4)GlcNAc(b1-3)Gal(b1-3)GlcNAc
# Procedure, shortened: as §1
# [41] = biological target: Neu5Ac(a2-6)Gal(b1-4)GlcNAc(b1-3)Gal(b1-4)GlcNAc
# Procedure, shortened: as §1
# [42] = biological target: Neu5Ac(a2-6)Gal(b1-4)GlcNAc(b1-3)Gal(b1-4)GlcNAc(b1-2)Man(a1-3)[Neu5Ac(a2-6)Gal(b1-4)GlcNAc(b1-3)Gal(b1-4)GlcNAc(b1-2)Man(a1-6)]GalNAc
# Procedure, shortened: as §1
# [43] = biological target: Neu5Ac(a2-6)Gal(b1-4)GlcNAc(b1-3)Gal(b1-4)GlcNAc(b1-3)Gal(b1-4)GlcNAc
# Procedure, shortened: as §1
binder,measurement,setting,value
"SRA-1 (Homo sapiens), P21757 (protein) MEQWDHFHNQQEDTDSCSESVKFDARSMTALLPPNPKNSPSLQEKLKSFKAALIALYLLVFAVLIPLIGIVAAQLLKWETKNCSVSSTNANDITQSLTGKGNDSEEEMRFQEVFMEHMSNMEKRIQHILDMEANLMDTEHFQNFSMTTDQRFNDILLQLSTLFSSVQGHGNAIDEISKSLISLNTTLLDLQLNIENLNGKIQENTFKQQEEISKLEERVYNVSAEIMAMKEEQVHLEQEIKGEVKVLNNITNDLRLKDWEHSQTLRNITLIQGPPGPPGEKGDRGPTGESGPRGFPGPIGPPGLKGDRGAIGFPGSRGLPGYAGRPGNSGPKGQKGEKGSGNTLTPFTKVRLVGGSGPHEGRVEILHSGQWGTICDDRWEVRVGQVVCRSLGYPGVQAVHKAAHFGQGTGPIWLNEVFCFGRESSIEECKIRQWGTRACSHSEDAGVTCTL",glycan array binding signal (z-score),[1],-0.523
same,glycan array binding signal (z-score),[2],0.163
same,glycan array binding signal (z-score),[3],-0.37
same,glycan array binding signal (z-score),[4],-0.579
same,glycan array binding signal (z-score),[5],0.181
same,glycan array binding signal (z-score),[6],-0.069
same,glycan array binding signal (z-score),[7],-0.226
same,glycan array binding signal (z-score),[8],-0.16
same,glycan array binding signal (z-score),[9],0.533
same,glycan array binding signal (z-score),[10],0.725
same,glycan array binding signal (z-score),[11],1.05
same,glycan array binding signal (z-score),[12],1.18
same,glycan array binding signal (z-score),[13],-0.114
same,glycan array binding signal (z-score),[14],-0.154
same,glycan array binding signal (z-score),[15],0.022
same,glycan array binding signal (z-score),[16],-0.502
same,glycan array binding signal (z-score),Neu5Ac(a2-3)GalNAc,-0.364
same,glycan array binding signal (z-score),[17],-0.329
same,glycan array binding signal (z-score),[18],-0.214
same,glycan array binding signal (z-score),[19],-0.507
same,glycan array binding signal (z-score),[20],0.563
same,glycan array binding signal (z-score),[21],-0.002
same,glycan array binding signal (z-score),Neu5Ac(a2-6)Gal,-0.353
same,glycan array binding signal (z-score),[22],-0.061
same,glycan array binding signal (z-score),Neu5Ac(a2-6)Gal(b1-4)Glc,0.128
same,glycan array binding signal (z-score),[23],0.017
same,glycan array binding signal (z-score),[24],-0.37
same,glycan array binding signal (z-score),[25],-0.097
same,glycan array binding signal (z-score),[26],-0.016
same,glycan array binding signal (z-score),[27],-0.307
same,glycan array binding signal (z-score),[28],-0.341
same,glycan array binding signal (z-score),[29],-0.137
same,glycan array binding signal (z-score),[30],0.472
same,glycan array binding signal (z-score),[31],0.143
same,glycan array binding signal (z-score),[32],0.228
same,glycan array binding signal (z-score),[33],0.243
same,glycan array binding signal (z-score),[34],-0.025
same,glycan array binding signal (z-score),[35],-0.109
same,glycan array binding signal (z-score),[36],-0.336
same,glycan array binding signal (z-score),[37],-0.097
same,glycan array binding signal (z-score),[38],-0.344
same,glycan array binding signal (z-score),[39],-0.404
same,glycan array binding signal (z-score),[40],-0.066
same,glycan array binding signal (z-score),[41],-0.257
same,glycan array binding signal (z-score),[42],0.355
same,glycan array binding signal (z-score),[43],0.218
